# In the supplement of paper PMC8728848:
# Some of the results follow.
# How the values were obtained:
# Test in all cases: glycan array binding signal (z-score within array); higher = stronger binding
# Settings in all cases: glycan notation: IUPAC condensed, linker removed
# [1] = target: Gal(b1-4)GlcNAc(b1-3)Gal(b1-4)GlcNAc(b1-6)[Gal(b1-3)]GalNAc
# Outline: (§1)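 From the Consortium for Functional Glycomics database, 3228 arrays were curated, keeping only those whose protein sequence was available. Binding is given as a within-array Z-score averaged across arrays sharing a protein sequence and across linkers. Negative Z-scores can be read as non-binding.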
# [2] = target: Gal(b1-4)GlcNAc(b1-3)Gal(b1-4)[Fuc(a1-3)]GlcNAc(b1-3)Gal(b1-4)[Fuc(a1-3)]GlcNAc
# Outline: as §1
# [3] = target: Gal(b1-4)GlcNAc(b1-3)GalNAc
# Outline: as §1
# [4] = target: Gal(b1-4)GlcNAc(b1-3)[Fuc(a1-3)GlcNAc(b1-6)]Gal(b1-4)Glc
# Outline: as §1
# [5] = target: Gal(b1-4)GlcNAc(b1-3)[Gal(b1-4)GlcNAc(b1-6)]Gal(b1-4)GlcNAc
# Outline: as §1
# [6] = target: Gal(b1-4)GlcNAc(b1-3)[GlcNAc(b1-6)]Gal(b1-4)GlcNAc
# Outline: as §1
# [7] = target: Gal(b1-4)GlcNAc(b1-6)Gal(b1-4)GlcNAc
# Outline: as §1
# [8] = target: Gal(b1-4)GlcNAc(b1-6)GalNAc
# Outline: as §1
# [9] = target: Gal(b1-4)GlcNAc(b1-6)[Gal(b1-3)]GalNAc
# Outline: as §1
# [10] = target: Gal(b1-4)GlcNAc(b1-6)[Gal(b1-4)GlcNAc(b1-3)]GalNAc
# Outline: as §1
# Gal(b1-4)GlcNAc6P = target: Gal(b1-4)GlcNAc6P
# Outline: as §1
# Gal(b1-6)Gal = target: Gal(b1-6)Gal
# Outline: as §1
# Gal3S(b1-3)GalNAc = target: Gal3S(b1-3)GalNAc
# Outline: as §1
# Gal3S(b1-3)GlcNAc = target: Gal3S(b1-3)GlcNAc
# Outline: as §1
# [11] = target: Gal3S(b1-3)[Fuc(a1-4)]GlcNAc
# Outline: as §1
# Gal3S(b1-4)Glc = target: Gal3S(b1-4)Glc
# Outline: as §1
# Gal3S(b1-4)Glc6S = target: Gal3S(b1-4)Glc6S
# Outline: as §1
# Gal3S(b1-4)GlcNAc = target: Gal3S(b1-4)GlcNAc
# Outline: as §1
# [12] = target: Gal3S(b1-4)[Fuc(a1-3)]Glc6S
# Outline: as §1
# [13] = target: Gal3S(b1-4)[Fuc(a1-3)]GlcNAc
# Outline: as §1
# [14] = target: Gal3S(b1-4)[Fuc(a1-3)]GlcNAc6S
# Outline: as §1
# Gal3S4S(b1-4)GlcNAc = target: Gal3S4S(b1-4)GlcNAc
# Outline: as §1
# Gal3S6S(b1-4)GlcNAc = target: Gal3S6S(b1-4)GlcNAc
# Outline: as §1
# Gal3S6S(b1-4)GlcNAc6S = target: Gal3S6S(b1-4)GlcNAc6S
# Outline: as §1
# Gal4S(b1-4)GlcNAc = target: Gal4S(b1-4)GlcNAc
# Outline: as §1
# Gal4S6S(b1-4)GlcNAc = target: Gal4S6S(b1-4)GlcNAc
# Outline: as §1
# Gal6P(b1-4)GlcNAc = target: Gal6P(b1-4)GlcNAc
# Outline: as §1
# Gal6S(b1-3)GlcNAc = target: Gal6S(b1-3)GlcNAc
# Outline: as §1
# Gal6S(b1-3)GlcNAc6S = target: Gal6S(b1-3)GlcNAc6S
# Outline: as §1
# Gal6S(b1-4)Glc = target: Gal6S(b1-4)Glc
# Outline: as §1
# Gal6S(b1-4)Glc6S = target: Gal6S(b1-4)Glc6S
# Outline: as §1
# Gal6S(b1-4)GlcNAc = target: Gal6S(b1-4)GlcNAc
# Outline: as §1
# Gal6S(b1-4)GlcNAc6S = target: Gal6S(b1-4)GlcNAc6S
# Outline: as §1
# GalNAc(a1-3)Gal = target: GalNAc(a1-3)Gal
# Outline: as §1
# GalNAc(a1-3)GalNAc = target: GalNAc(a1-3)GalNAc
# Outline: as §1
# [15] = target: GalNAc(a1-3)GalNAc(b1-3)Gal(a1-4)Gal(b1-4)Glc
# Outline: as §1
# [16] = target: GalNAc(a1-3)GalNAc(b1-3)Gal(a1-4)Gal(b1-4)GlcNAc
# Outline: as §1
# GalNAc(b1-3)Gal = target: GalNAc(b1-3)Gal
# Outline: as §1
# [17] = target: GalNAc(b1-3)Gal(a1-4)Gal(b1-4)GlcNAc
# Outline: as §1
# [18] = target: GalNAc(b1-3)Gal(a1-4)Gal(b1-4)GlcNAc(b1-3)Gal(b1-4)Glc
# Outline: as §1
# [19] = target: GalNAc(b1-3)Gal(a1-6)Gal(b1-4)Glc
# Outline: as §1
# GalNAc(b1-3)GalNAc = target: GalNAc(b1-3)GalNAc
# Outline: as §1
# GalNAc(b1-3)GlcNAc = target: GalNAc(b1-3)GlcNAc
# Outline: as §1
# GalNAc(b1-4)Gal(b1-4)Glc = target: GalNAc(b1-4)Gal(b1-4)Glc
# Outline: as §1
# GalNAc(b1-4)GlcNAc = target: GalNAc(b1-4)GlcNAc
# Outline: as §1
binder,measurement,setting,value
FimA-N3 (Actinomyces oris) (protein) MHHHHHHSSGVDLGTENLYFQSNAGLQGAQFQLYKAKNAYANTCSNEKEGAPIAINGQTTLTTDAQGAIDIKGLFISDSIDGADRDNQVNAMERCYVLVETKAPAGYVLPAGNGAATPVKVKAGEETTDN,glycan array binding signal (z-score),[1],-0.019
same,glycan array binding signal (z-score),[2],0.122
same,glycan array binding signal (z-score),[3],-0.523
same,glycan array binding signal (z-score),[4],-0.038
same,glycan array binding signal (z-score),[5],-0.334
same,glycan array binding signal (z-score),[6],-0.376
same,glycan array binding signal (z-score),[7],-0.237
same,glycan array binding signal (z-score),[8],0.068
same,glycan array binding signal (z-score),[9],1.14
same,glycan array binding signal (z-score),[10],0.729
same,glycan array binding signal (z-score),Gal(b1-4)GlcNAc6P,-0.278
same,glycan array binding signal (z-score),Gal(b1-6)Gal,-0.439
same,glycan array binding signal (z-score),Gal3S(b1-3)GalNAc,-0.184
same,glycan array binding signal (z-score),Gal3S(b1-3)GlcNAc,-0.003
same,glycan array binding signal (z-score),[11],0.055
same,glycan array binding signal (z-score),Gal3S(b1-4)Glc,0.681
same,glycan array binding signal (z-score),Gal3S(b1-4)Glc6S,-0.381
same,glycan array binding signal (z-score),Gal3S(b1-4)GlcNAc,0.9
same,glycan array binding signal (z-score),[12],1.49
same,glycan array binding signal (z-score),[13],0.283
same,glycan array binding signal (z-score),[14],4.34
same,glycan array binding signal (z-score),Gal3S4S(b1-4)GlcNAc,-0.023
same,glycan array binding signal (z-score),Gal3S6S(b1-4)GlcNAc,1.16
same,glycan array binding signal (z-score),Gal3S6S(b1-4)GlcNAc6S,-0.339
same,glycan array binding signal (z-score),Gal4S(b1-4)GlcNAc,-0.198
same,glycan array binding signal (z-score),Gal4S6S(b1-4)GlcNAc,-0.275
same,glycan array binding signal (z-score),Gal6P(b1-4)GlcNAc,0.054
same,glycan array binding signal (z-score),Gal6S(b1-3)GlcNAc,0.033
same,glycan array binding signal (z-score),Gal6S(b1-3)GlcNAc6S,-0.446
same,glycan array binding signal (z-score),Gal6S(b1-4)Glc,0.552
same,glycan array binding signal (z-score),Gal6S(b1-4)Glc6S,0.022
same,glycan array binding signal (z-score),Gal6S(b1-4)GlcNAc,1.07
same,glycan array binding signal (z-score),Gal6S(b1-4)GlcNAc6S,-0.192
same,glycan array binding signal (z-score),GalNAc(a1-3)Gal,1.87
same,glycan array binding signal (z-score),GalNAc(a1-3)GalNAc,-0.412
same,glycan array binding signal (z-score),[15],-0.494
same,glycan array binding signal (z-score),[16],-0.164
same,glycan array binding signal (z-score),GalNAc(b1-3)Gal,2.63
same,glycan array binding signal (z-score),[17],0.281
same,glycan array binding signal (z-score),[18],1.45
same,glycan array binding signal (z-score),[19],-0.438
same,glycan array binding signal (z-score),GalNAc(b1-3)GalNAc,-0.297
same,glycan array binding signal (z-score),GalNAc(b1-3)GlcNAc,-0.23
same,glycan array binding signal (z-score),GalNAc(b1-4)Gal(b1-4)Glc,0.001
same,glycan array binding signal (z-score),GalNAc(b1-4)GlcNAc,-0.022
